Measurements taken from the supplement of paper PMC3334620.
In all, about 33,000 sequences were measured (“E-score (-0.5 to 0.5)”: median about -0.041, highest 2% from about 0.37 on). The list shows a part of the results.

Biological target: T1, Ecm22 (UniProt Q05958)
T1 sequence: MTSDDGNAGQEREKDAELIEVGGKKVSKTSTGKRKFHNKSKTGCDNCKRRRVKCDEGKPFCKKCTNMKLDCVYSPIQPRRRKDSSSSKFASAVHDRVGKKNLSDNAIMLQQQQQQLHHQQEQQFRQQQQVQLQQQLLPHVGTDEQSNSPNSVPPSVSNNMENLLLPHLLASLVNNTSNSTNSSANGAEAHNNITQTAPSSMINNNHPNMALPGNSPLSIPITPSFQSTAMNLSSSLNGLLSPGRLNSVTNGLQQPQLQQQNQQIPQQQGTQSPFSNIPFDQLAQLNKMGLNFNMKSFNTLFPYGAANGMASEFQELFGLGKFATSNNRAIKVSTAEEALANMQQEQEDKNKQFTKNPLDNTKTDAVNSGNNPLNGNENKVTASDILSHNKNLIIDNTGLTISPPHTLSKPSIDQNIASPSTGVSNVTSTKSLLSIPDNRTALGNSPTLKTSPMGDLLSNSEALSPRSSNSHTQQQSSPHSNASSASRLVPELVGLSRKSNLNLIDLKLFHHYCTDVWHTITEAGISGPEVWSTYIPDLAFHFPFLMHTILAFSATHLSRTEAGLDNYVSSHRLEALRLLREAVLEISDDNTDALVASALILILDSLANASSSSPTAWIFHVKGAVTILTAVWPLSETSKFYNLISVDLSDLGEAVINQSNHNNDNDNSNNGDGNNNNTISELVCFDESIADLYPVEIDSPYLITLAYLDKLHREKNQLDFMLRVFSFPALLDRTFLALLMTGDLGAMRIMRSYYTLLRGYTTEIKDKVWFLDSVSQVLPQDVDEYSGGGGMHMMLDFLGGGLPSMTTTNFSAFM
Assay: PBM E-score (8-mer binding enrichment) (E-score (-0.5 to 0.5)); higher = stronger / more preferred TF binding; most listed sequences are background and not binding sites
Conditions: protein concentration: 200 nM; construct: GST-full length
Method in brief: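 Full-length yeast transcription factors or their DNA-binding domains, GST-tagged and expressed with PURExpress, were applied at about 100-200 nM to universal all-10-mer Agilent arrays. These arrays had been made double-stranded by primer extension on fresh or once-stripped slides. Detection used fluorescent anti-GST, normalisation used masliner, and E-scores for ungapped eight-base words pooled with reverse complements came from the Universal PBM Analysis Suite.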

Going from AAAAATAC to ACCTACGG, the “PBM E-score” value falls from 0.0641 to -0.24.

Going from CTCTCGAA to GTGAACTA, the “PBM E-score” value rises from -0.0852 to 0.0738.

Compared with CATAGTCG, CTGGTAGC is lower in “PBM E-score” value: 0.0472 for the first, -0.248 for the second.

First: ACCCTCCG
Second: AAGAATGC
The “PBM E-score” value of the first is higher: -0.0451 for the first, -0.151 for the second.

Compared with CGTATTGA, ACCGGACG is lower in “PBM E-score” value: 0.241 for the first, 0.0312 for the second.

Going from AGCGCTTG to GTGGTAAC, the “PBM E-score” value rises from -0.203 to 0.0265.

Going from CGTCAAAA to ATATGGAA, the “PBM E-score” value falls from 0.0203 to -0.00599.

Going from TAAAAATA to AATCTCGT, the “PBM E-score” value rises from 0.00387 to 0.386.

Compared with CCTCACAA, AGTTCAGC is higher in “PBM E-score” value: -0.155 for the first, -0.102 for the second.

First: ATGAAGTA
Second: GTCGTCAA
The “PBM E-score” value of the first is higher: -0.0234 for the first, -0.0282 for the second.

First: CGATTGGA
Second: GAATATAC
The “PBM E-score” value of the first is lower: -0.0135 for the first, 0.232 for the second.

Compared with GGGCACTA, ACTATAAA is lower in “PBM E-score” value: -0.134 for the first, -0.184 for the second.

First: ATATCTTG
Second: AATCGACG
The “PBM E-score” value of the first is lower: -0.103 for the first, 0.126 for the second.

Going from CAAGGACA to AACAACAG, the “PBM E-score” value rises from -0.247 to -0.12.

Compared with ACAGAAAG, AGAGTGTC is higher in “PBM E-score” value: -0.0506 for the first, 0.0415 for the second.

First: GTATAGTA
Second: CAGGTCCC
The “PBM E-score” value of the first is higher: 0.345 for the first, -0.238 for the second.

Compared with AGCACATG, ATATGCAT is higher in “PBM E-score” value: -0.00329 for the first, -0.00148 for the second.

Going from CTCAAAGA to ACCTTTAC, the “PBM E-score” value rises from -0.194 to 0.0667.

Compared with GGCGGTGA, TATCAACA is higher in “PBM E-score” value: -0.0904 for the first, -0.00615 for the second.

Compared with CGCGCCCA, TAACTTAA is lower in “PBM E-score” value: -0.00819 for the first, -0.141 for the second.

First: GCAGTCGA
Second: ACGGCTAA
The “PBM E-score” value of the first is lower: -0.106 for the first, 0.178 for the second.

Going from CTTAATAA to GAGACAAA, the “PBM E-score” value falls from 0.0233 to -0.0853.

Going from AACAGTGC to CACGAGTG, the “PBM E-score” value rises from -0.0382 to 0.106.

Compared with GAAATAAC, CGGAGGAG is lower in “PBM E-score” value: -0.0134 for the first, -0.134 for the second.

Compared with ACGCTCGG, AACGCCCT is lower in “PBM E-score” value: 0.21 for the first, -0.00177 for the second.

Going from CAACAGCG to CAAATCGC, the “PBM E-score” value rises from -0.152 to -0.151.

Going from CTTAAGTC to GAGGGACC, the “PBM E-score” value rises from -0.146 to 0.00761.

First: CAAGGAGA
Second: AAAACGAT
The “PBM E-score” value of the first is lower: -0.262 for the first, 0.257 for the second.

Compared with AGCGACAT, CCGAACCG is lower in “PBM E-score” value: 0.214 for the first, 0.12 for the second.

First: ATTATACA
Second: GCCGGCAC
The “PBM E-score” value of the first is higher: 0.0593 for the first, -0.079 for the second.

Going from GGATGCAC to ATTCGAAA, the “PBM E-score” value rises from -0.164 to 0.0727.

Going from AGTTGGTC to GGGGCCAC, the “PBM E-score” value falls from -0.129 to -0.218.

Compared with ATGACAGA, ATTACAGG is higher in “PBM E-score” value: -0.0246 for the first, 0.045 for the second.

Compared with ACATATAA, GTTAGCCA is higher in “PBM E-score” value: -0.118 for the first, -0.0509 for the second.

Compared with AACTACGT, TAGTGCAA is lower in “PBM E-score” value: 0.161 for the first, -0.0232 for the second.

Compared with CATAACGA, ATGTGTGC is lower in “PBM E-score” value: 0.0768 for the first, -0.252 for the second.

First: CTTGCGGA
Second: CGCAATAA
The “PBM E-score” value of the first is lower: 0.0958 for the first, 0.117 for the second.

Going from ACGTAACA to ATCTAAGA, the “PBM E-score” value falls from -0.00639 to -0.199.

Compared with GGACCGAA, ACGGCCGT is higher in “PBM E-score” value: 0.215 for the first, 0.26 for the second.

Going from AAGGGAAC to ATAAAAGG, the “PBM E-score” value falls from 0.164 to -0.132.

First: GAAATTTA
Second: GGAAAGAC
The “PBM E-score” value of the first is higher: 0.177 for the first, -0.173 for the second.

Going from AGTCCAAG to TCTATTAA, the “PBM E-score” value rises from -0.189 to -0.0219.

Going from GCAATACC to GCGACCTA, the “PBM E-score” value rises from 0.0155 to 0.115.

Going from AGGACAAC to CCTAAGCG, the “PBM E-score” value rises from -0.109 to 0.183.

First: GCTGGTGA
Second: CCGTGCCA
The “PBM E-score” value of the first is higher: 0.0251 for the first, -0.29 for the second.

Going from CACGAAAC to GGCAAAAC, the “PBM E-score” value falls from 0.147 to -0.29.

Going from CCTCCAAC to CACAGAAG, the “PBM E-score” value rises from -0.238 to -0.195.

Compared with ACGATATA, TCATCCGA is lower in “PBM E-score” value: 0.314 for the first, 0.245 for the second.

Compared with CCGACGCG, TAGCAGCA is lower in “PBM E-score” value: 0.218 for the first, -0.154 for the second.

Compared with ACATGCTC, TAATGGGA is lower in “PBM E-score” value: -0.0921 for the first, -0.343 for the second.

First: ATATAAGC
Second: CGGGCTTC
The “PBM E-score” value of the first is higher: 0.0914 for the first, -0.0188 for the second.

Going from ACAGGAAC to TTCATAAA, the “PBM E-score” value falls from 0.0912 to -0.0521.

First: GGCGACGA
Second: AAATGCGA
The “PBM E-score” value of the first is lower: 0.0273 for the first, 0.222 for the second.

Compared with ACGTGGCA, AGGTTGTA is higher in “PBM E-score” value: -0.186 for the first, 0.101 for the second.

Compared with ACCCACGG, CCGCCTCG is higher in “PBM E-score” value: -0.212 for the first, 0.299 for the second.

Going from CAATTGTC to ACACTACG, the “PBM E-score” value rises from -0.06 to 0.0807.

First: ATCTCGGA
Second: GCATTGTA
The “PBM E-score” value of the first is higher: 0.203 for the first, -0.23 for the second.

Compared with GACTTATA, AGTGTCGA is lower in “PBM E-score” value: 0.196 for the first, 0.0924 for the second.

Compared with AATGTCGA, GGAAGAAC is higher in “PBM E-score” value: -0.0242 for the first, 0.143 for the second.

First: CGACGACA
Second: AGGAGTCA
The “PBM E-score” value of the first is higher: 0.259 for the first, -0.105 for the second.

Compared with ACCACGGC, CGTTCGAG is higher in “PBM E-score” value: -0.209 for the first, 0.219 for the second.

Going from ACGACTAC to GCTGTGAC, the “PBM E-score” value falls from 0.333 to 0.0827.

First: TCTGTTCA
Second: CTATAGGA
The “PBM E-score” value of the first is lower: -0.144 for the first, -0.138 for the second.

Going from ATCCTCCA to ACACCCCA, the “PBM E-score” value falls from -0.0995 to -0.198.

First: CAACAGTG
Second: GAATTATA
The “PBM E-score” value of the first is lower: -0.121 for the first, 0.123 for the second.

Compared with ACTATGAG, CGATTGAG is higher in “PBM E-score” value: -0.208 for the first, 0.189 for the second.

Going from CTACTACA to GCCAGAGC, the “PBM E-score” value falls from -0.0211 to -0.224.

First: CCCGCCAA
Second: GGCGCAAA
The “PBM E-score” value of the first is lower: -0.0941 for the first, -0.0854 for the second.

Going from AGCCCAAA to CGGGCGGC, the “PBM E-score” value rises from -0.169 to -0.0837.

Going from ACAGCAGT to CGAAGCGA, the “PBM E-score” value rises from 0.044 to 0.278.

First: AAACTCAA
Second: ATGTTTCC
The “PBM E-score” value of the first is higher: 0.0502 for the first, -0.0668 for the second.

Going from AGAGGGAC to CGTGGGTC, the “PBM E-score” value falls from -0.0884 to -0.168.

Going from AAGTGACT to CCTGGTGA, the “PBM E-score” value falls from -0.103 to -0.168.

First: CAATCTCC
Second: AACCCGAC
The “PBM E-score” value of the first is lower: -0.234 for the first, 0.183 for the second.

First: CTACTCAC
Second: ATTCGGGC
The “PBM E-score” value of the first is lower: -0.223 for the first, -0.00721 for the second.

Compared with ACTCCACA, AACGGTTG is higher in “PBM E-score” value: -0.125 for the first, 0.132 for the second.

Compared with ACGAATTA, AGACGGAA is lower in “PBM E-score” value: 0.339 for the first, -0.0621 for the second.

First: GAGTATAA
Second: TCCCTAAA
The “PBM E-score” value of the first is higher: 0.127 for the first, -0.00662 for the second.

Compared with AAAGTGAA, GTAATTTA is higher in “PBM E-score” value: -0.0975 for the first, 0.177 for the second.

Compared with GCGCGGAC, ACCTGAAT is higher in “PBM E-score” value: -0.0907 for the first, 0.0533 for the second.

Going from CCCAATGC to CCCTGGTC, the “PBM E-score” value rises from -0.289 to -0.227.

Going from ACCAAAGG to CGTTTTAA, the “PBM E-score” value rises from -0.164 to 0.267.

Going from CTAGATTC to ATCGAACA, the “PBM E-score” value rises from -0.0775 to 0.0719.

Compared with CTAACTCA, GCGTTCGA is higher in “PBM E-score” value: -0.287 for the first, 0.0441 for the second.

Going from ACATTTTA to CGGATGGC, the “PBM E-score” value falls from 0.037 to -0.108.

Going from ATGAAGAA to GCTCATAC, the “PBM E-score” value rises from 0.00943 to 0.0202.
